The campaign covered roughly 310,000 compounds. About 2,200 (0.71%) showed an effect of 50% or more. The effect is printed as a negative number. The list shows a part of the results.
target: human ether-à-go-go-related gene (hERG) potassium channel (human, UniProt Q12809); assay: primary screen, population patch clamp on CHO cells stably expressing hERG
Sequence (Q12809 whole entry, looked up): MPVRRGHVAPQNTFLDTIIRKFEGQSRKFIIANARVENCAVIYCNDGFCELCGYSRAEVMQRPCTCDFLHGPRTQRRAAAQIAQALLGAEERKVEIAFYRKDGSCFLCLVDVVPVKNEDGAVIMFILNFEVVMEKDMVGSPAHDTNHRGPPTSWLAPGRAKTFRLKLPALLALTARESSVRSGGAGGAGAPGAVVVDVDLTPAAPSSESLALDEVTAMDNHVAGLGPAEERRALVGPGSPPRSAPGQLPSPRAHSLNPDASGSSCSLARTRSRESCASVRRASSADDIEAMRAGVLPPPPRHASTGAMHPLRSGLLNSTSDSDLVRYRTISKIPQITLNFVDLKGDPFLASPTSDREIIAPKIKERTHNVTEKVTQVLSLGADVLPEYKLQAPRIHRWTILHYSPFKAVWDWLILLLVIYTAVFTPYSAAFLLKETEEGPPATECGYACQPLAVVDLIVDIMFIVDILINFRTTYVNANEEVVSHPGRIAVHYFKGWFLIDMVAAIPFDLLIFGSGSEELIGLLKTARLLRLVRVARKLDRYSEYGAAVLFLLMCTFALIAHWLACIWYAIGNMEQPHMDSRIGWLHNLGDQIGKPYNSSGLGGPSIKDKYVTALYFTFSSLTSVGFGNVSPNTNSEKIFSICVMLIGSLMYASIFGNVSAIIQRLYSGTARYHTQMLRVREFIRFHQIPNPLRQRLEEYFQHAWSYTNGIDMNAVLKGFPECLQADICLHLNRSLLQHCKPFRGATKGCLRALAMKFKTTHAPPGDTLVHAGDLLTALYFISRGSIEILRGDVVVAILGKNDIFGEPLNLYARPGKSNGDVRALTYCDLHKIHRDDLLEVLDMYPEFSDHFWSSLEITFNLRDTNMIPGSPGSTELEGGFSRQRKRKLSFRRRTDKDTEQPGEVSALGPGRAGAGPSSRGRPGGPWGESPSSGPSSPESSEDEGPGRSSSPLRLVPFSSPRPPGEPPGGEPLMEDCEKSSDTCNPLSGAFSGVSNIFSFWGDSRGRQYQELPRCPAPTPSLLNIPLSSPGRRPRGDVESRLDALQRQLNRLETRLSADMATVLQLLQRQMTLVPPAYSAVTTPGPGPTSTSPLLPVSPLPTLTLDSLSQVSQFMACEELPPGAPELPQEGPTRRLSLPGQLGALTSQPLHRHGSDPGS

Q: For `CN(Cc1ccc(OC(F)F)cc1)C(=O)c1ccc(S(=O)(=O)N(C)c2ccccc2)cc1`, which “hERG current change (%, negative = inhibition) at 1uM” value is on record?
A: Its value is -19.2%.

Q: How did the “hERG current change (%, negative = inhibition) at 1uM” value turn out when `C/C(=N/NC(=O)c1ccc(C)s1)c1cccnc1` was run?
A: Its value is 1.48%.

Q: For `O=[N+]([O-])c1ccccc1CN1CCN(Cc2ccc3ccccc3c2)CC1`, which “hERG current change (%, negative = inhibition) at 1uM” value is on record?
A: The value was 12.2%.

Q: With `CC1CCN(CCCNC(=O)c2ccc(CSCc3cccc(Cl)c3)o2)CC1` as the compound, how does the “hERG current change (%, negative = inhibition) at 1uM” value read?
A: Its value is -62.4%.

Q: With `Cc1ccc(-c2nn(C)c(=O)c3ccccc23)cc1S(=O)(=O)N1CCCC1` as the compound, how does the “hERG current change (%, negative = inhibition) at 1uM” value read?
A: Its value is -1.06%.

Q: For `CCC(C)N1C(=O)CCC1C(=O)NCc1ccc2c(c1)OCO2` (stereo not shown), which “hERG current change (%, negative = inhibition) at 1uM” value is on record?
A: The value was 12.6%.

Q: How did the “hERG current change (%, negative = inhibition) at 1uM” value turn out when `CCNC(=O)Cc1c(OC)ccc2cc(Br)ccc12` was run?
A: Its value is 8.61%.

Q: With `COCCC(=O)N1CCCC(CCC(=O)NCc2ccc(F)c(F)c2)C1` (stereo not shown) as the compound, how does the “hERG current change (%, negative = inhibition) at 1uM” value read?
A: The value was 8.27%.

Q: For `COCCCNC(=O)/C(C#N)=C/c1c(N2CCN(c3ccc(OC)cc3)CC2)nc2c(C)cccn2c1=O`, which “hERG current change (%, negative = inhibition) at 1uM” value is on record?
A: The value was 13.1%.

Q: With `COc1cc(/C=N/N2CCCCC2)cc(OC)c1O.O=P(O)(O)O` as the compound, how does the “hERG current change (%, negative = inhibition) at 1uM” value read?
A: Its value is 10.9%.

Q: `CCOC(=O)C1=C(CCc2ccccc2)NC(=O)NC1c1ccc(Br)cc1` (stereo not shown) was tested. Which “hERG current change (%, negative = inhibition) at 1uM” value did it give?
A: The value was 15.8%.

Q: `CCOC(=O)c1cc(-c2ccccc2)sc1NC(=O)C(C)OC(=O)c1cccnc1OCC` (stereo not shown) was tested. Which “hERG current change (%, negative = inhibition) at 1uM” value did it give?
A: Its value is -1.5%.

Q: For `COc1ccccc1C(=O)Nc1ccnn1C1CCN(Cc2cn(C)c3ccccc23)CC1`, which “hERG current change (%, negative = inhibition) at 1uM” value is on record?
A: The value was -74.9%.

Q: Which “hERG current change (%, negative = inhibition) at 1uM” value does the source give for `Cc1ccc(-n2nc(C)c3c2OC(N)=C(C#N)C3c2ccoc2)cc1` (stereo not shown) here?
A: Its value is 8.97%.

Q: `O=C(Nc1ccon1)C1CCN(S(=O)(=O)c2cccs2)CC1` was tested. Which “hERG current change (%, negative = inhibition) at 1uM” value did it give?
A: Its value is -4.01%.

Q: With `Brc1ccccc1OCCN1CCOCC1.O=C(O)C(=O)O` as the compound, how does the “hERG current change (%, negative = inhibition) at 1uM” value read?
A: The value was 12.4%.

Q: How did the “hERG current change (%, negative = inhibition) at 1uM” value turn out when `Cc1nc(CNS(=O)(=O)c2cccnc2)cs1` was run?
A: The value was 3.78%.

Q: `CCOc1ccc(NC(=O)C(=O)N/N=C/c2ccccc2F)cc1` was tested. Which “hERG current change (%, negative = inhibition) at 1uM” value did it give?
A: Its value is 11.5%.

Q: For `CSCC[C@H](NC(=O)OC(C)(C)C)c1nnc(SCC(=O)Nc2ccc(C)cc2C)o1`, which “hERG current change (%, negative = inhibition) at 1uM” value is on record?
A: The value was -5.16%.

Q: With `COc1ccc(OC)c(S(=O)(=O)n2cccn2)c1` as the compound, how does the “hERG current change (%, negative = inhibition) at 1uM” value read?
A: Its value is 15.5%.

Q: With `COc1cc(/C=N/NC(=O)c2cccc([N+](=O)[O-])c2)ccc1OC(=O)c1ccco1` as the compound, how does the “hERG current change (%, negative = inhibition) at 1uM” value read?
A: The value was 6.03%.

Q: Which “hERG current change (%, negative = inhibition) at 1uM” value does the source give for `CCCCN(CCCC)CCn1cnc2c([nH]c3ccc(OC)cc32)c1=O` here?
A: The value was -0.941%.

Q: For `CN(CC#CC1(O)c2ccccc2-c2ccccc21)Cc1ccccc1`, which “hERG current change (%, negative = inhibition) at 1uM” value is on record?
A: Its value is 0.0211%.

Q: For `CCCn1c(O)c2ccc(C(=O)N=NC(=O)c3cccnc3)cc2c1O`, which “hERG current change (%, negative = inhibition) at 1uM” value is on record?
A: Its value is 5.56%.

Q: How did the “hERG current change (%, negative = inhibition) at 1uM” value turn out when `CCN(c1cccc(C)c1)S(=O)(=O)c1ccc2c(c1)oc(=O)n2C` was run?
A: The value was 8.78%.

Q: For `COc1ccc(CN(C)Cc2nc(Cc3ccccc3Cl)no2)cc1OC`, which “hERG current change (%, negative = inhibition) at 1uM” value is on record?
A: The value was 8.22%.

Q: `COc1ccc(S(=O)(=O)N2CCOCC2)cc1C(=O)N(C)Cc1ccccc1F` was tested. Which “hERG current change (%, negative = inhibition) at 1uM” value did it give?
A: The value was 1.94%.

Q: How did the “hERG current change (%, negative = inhibition) at 1uM” value turn out when `CC(=O)c1c(C)[nH]c(C(=O)CSc2nnc(-c3ccco3)o2)c1C` was run?
A: The value was 6.36%.

Q: With `O=C(Nc1cc(Cl)ccc1N1CCOCC1)c1ccc2c(c1)OCCO2` as the compound, how does the “hERG current change (%, negative = inhibition) at 1uM” value read?
A: The value was -2.5%.

Q: With `CCOC(=O)N1CCC(NC(=O)CCN2C(=O)COc3ccccc32)CC1` as the compound, how does the “hERG current change (%, negative = inhibition) at 1uM” value read?
A: Its value is 10%.

Q: `O=C(NCC(=O)N1CCN(c2ccc(C(F)(F)F)cn2)CC1)c1ccc(Br)o1` was tested. Which “hERG current change (%, negative = inhibition) at 1uM” value did it give?
A: The value was -34%.

Q: With `COc1ccc(NC(=S)Nc2ccccn2)cc1` as the compound, how does the “hERG current change (%, negative = inhibition) at 1uM” value read?
A: The value was 5.63%.

Q: Which “hERG current change (%, negative = inhibition) at 1uM” value does the source give for `O=C(c1cccc(Br)c1)N1CCN(C(=O)N2CCCCC2)CC1` here?
A: The value was 7.44%.

Q: With `CCc1ccccc1NS(=O)(=O)c1c(C(=O)N2CCCCCC2)c(C)n(C)c1C` as the compound, how does the “hERG current change (%, negative = inhibition) at 1uM” value read?
A: The value was 0.158%.

Q: With `COc1cccc(NC(=O)CCC2CCN(C(=O)c3c(C)noc3C)CC2)c1` as the compound, how does the “hERG current change (%, negative = inhibition) at 1uM” value read?
A: Its value is 17.9%.

Q: Which “hERG current change (%, negative = inhibition) at 1uM” value does the source give for `CC1=NN(c2nc(-c3ccccc3)cs2)C(=O)C1` here?
A: The value was 16.5%.

Q: `CC1CCCN(C(=O)NC2CC(=O)N(c3ccc4c(c3)OCCO4)C2)C1` (stereo not shown) was tested. Which “hERG current change (%, negative = inhibition) at 1uM” value did it give?
A: Its value is 8.65%.

Q: How did the “hERG current change (%, negative = inhibition) at 1uM” value turn out when `CC1=NN(c2ccccc2)C(=O)/C1=C\c1cc(C)n(-c2ccccc2)c1C` was run?
A: The value was 10.2%.

Q: For `Cc1ccc(C)c(NC(=O)C(Sc2nc3ccccc3c(=O)n2CC(C)C)c2ccccc2)c1` (stereo not shown), which “hERG current change (%, negative = inhibition) at 1uM” value is on record?
A: Its value is 6.59%.

Q: For `O=C(Nc1nc(-c2ccccc2)c(-c2ccccc2)o1)c1ccc(F)cc1`, which “hERG current change (%, negative = inhibition) at 1uM” value is on record?
A: Its value is 13.5%.

Q: `NC(=O)CSc1nccn1Cc1ccc2c(c1)OCO2` was tested. Which “hERG current change (%, negative = inhibition) at 1uM” value did it give?
A: Its value is 12.3%.

Q: How did the “hERG current change (%, negative = inhibition) at 1uM” value turn out when `COc1ccc(OC)c(-c2nc(C(=O)NC3CCN(Cc4ccccc4)CC3)cc3c2[nH]c2ccccc23)c1` was run?
A: Its value is 7.39%.

Q: Which “hERG current change (%, negative = inhibition) at 1uM” value does the source give for `O=C(CSc1nnc(-c2ccc(F)cc2)c2ccccc12)Nc1c(F)cccc1F` here?
A: The value was -1.41%.

Q: With `COc1cc(NC(=O)c2ccc(F)cc2)c(OC)cc1NC(=O)CN1CCCCC1.Cl` as the compound, how does the “hERG current change (%, negative = inhibition) at 1uM” value read?
A: Its value is -0.575%.

Q: For `CC(=O)NC(NC(=S)Nc1cccc(Br)c1)C(Cl)(Cl)Cl` (stereo not shown), which “hERG current change (%, negative = inhibition) at 1uM” value is on record?
A: The value was -6.09%.

Q: `O=C1CC(N2CCN(c3ccccc3)CC2)C(=O)N1c1cccc(Br)c1` (stereo not shown) was tested. Which “hERG current change (%, negative = inhibition) at 1uM” value did it give?
A: Its value is 16.3%.

Q: `COc1cc(NC(=O)CSc2nc(C)c(C)c(C)n2)c(C)cc1[N+](=O)[O-]` was tested. Which “hERG current change (%, negative = inhibition) at 1uM” value did it give?
A: Its value is 12.3%.

Q: For `CCc1ccc(NC(=S)N2CCCCCCC2)cc1`, which “hERG current change (%, negative = inhibition) at 1uM” value is on record?
A: Its value is 9.19%.

Q: How did the “hERG current change (%, negative = inhibition) at 1uM” value turn out when `N#CC(c1ccc(=O)[nH]n1)c1ccc(Cl)cc1Cl` (stereo not shown) was run?
A: The value was 4.89%.

Q: How did the “hERG current change (%, negative = inhibition) at 1uM” value turn out when `O=C(c1ccc2c(c1)C(=O)N(CCCO)C2=O)c1ccc2c(c1)C(=O)N(CCCO)C2=O` was run?
A: The value was 9.23%.

Q: Which “hERG current change (%, negative = inhibition) at 1uM” value does the source give for `CSc1nc(C)cc(SCC(=O)N/N=C/c2ccccc2)n1` here?
A: Its value is 1.49%.

Q: Which “hERG current change (%, negative = inhibition) at 1uM” value does the source give for `Cc1cccc(C)c1NC(=O)C[N+](C)(C)CC(O)COc1cccc2ccccc12.[Cl-]` (stereo not shown) here?
A: The value was 0.617%.

Q: `CCOc1ccc(NC(=O)Cn2nnc(-c3ccccc3NC(=O)c3cccs3)n2)cc1` was tested. Which “hERG current change (%, negative = inhibition) at 1uM” value did it give?
A: Its value is -0.716%.

Q: With `Cc1cc(/C=C(\C#N)C(=O)OCC#N)c(C)n1CC(C)C` as the compound, how does the “hERG current change (%, negative = inhibition) at 1uM” value read?
A: The value was 11.7%.

Q: How did the “hERG current change (%, negative = inhibition) at 1uM” value turn out when `CCOC(=O)Cc1csc2nc3sc(C)c(C)c3c(=O)n12` was run?
A: The value was 5.5%.
